In paper PMC4336329 (PLoS ONE, 2015):
In all, about 310,000 compounds went through this assay and about 14,000 (4.5%) showed an effect of 50% or more. The effect is printed as a negative number. The list shows a part of the results.

target: human ether-à-go-go-related gene (hERG) potassium channel (human, UniProt Q12809); test: primary screen, population patch clamp on CHO cells stably expressing hERG
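Also: peak tail current of the secondary pulse compared with the same well before compound.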

human ether-à-go-go-related gene (hERG) potassium channel, sequence (Q12809 whole entry, looked up): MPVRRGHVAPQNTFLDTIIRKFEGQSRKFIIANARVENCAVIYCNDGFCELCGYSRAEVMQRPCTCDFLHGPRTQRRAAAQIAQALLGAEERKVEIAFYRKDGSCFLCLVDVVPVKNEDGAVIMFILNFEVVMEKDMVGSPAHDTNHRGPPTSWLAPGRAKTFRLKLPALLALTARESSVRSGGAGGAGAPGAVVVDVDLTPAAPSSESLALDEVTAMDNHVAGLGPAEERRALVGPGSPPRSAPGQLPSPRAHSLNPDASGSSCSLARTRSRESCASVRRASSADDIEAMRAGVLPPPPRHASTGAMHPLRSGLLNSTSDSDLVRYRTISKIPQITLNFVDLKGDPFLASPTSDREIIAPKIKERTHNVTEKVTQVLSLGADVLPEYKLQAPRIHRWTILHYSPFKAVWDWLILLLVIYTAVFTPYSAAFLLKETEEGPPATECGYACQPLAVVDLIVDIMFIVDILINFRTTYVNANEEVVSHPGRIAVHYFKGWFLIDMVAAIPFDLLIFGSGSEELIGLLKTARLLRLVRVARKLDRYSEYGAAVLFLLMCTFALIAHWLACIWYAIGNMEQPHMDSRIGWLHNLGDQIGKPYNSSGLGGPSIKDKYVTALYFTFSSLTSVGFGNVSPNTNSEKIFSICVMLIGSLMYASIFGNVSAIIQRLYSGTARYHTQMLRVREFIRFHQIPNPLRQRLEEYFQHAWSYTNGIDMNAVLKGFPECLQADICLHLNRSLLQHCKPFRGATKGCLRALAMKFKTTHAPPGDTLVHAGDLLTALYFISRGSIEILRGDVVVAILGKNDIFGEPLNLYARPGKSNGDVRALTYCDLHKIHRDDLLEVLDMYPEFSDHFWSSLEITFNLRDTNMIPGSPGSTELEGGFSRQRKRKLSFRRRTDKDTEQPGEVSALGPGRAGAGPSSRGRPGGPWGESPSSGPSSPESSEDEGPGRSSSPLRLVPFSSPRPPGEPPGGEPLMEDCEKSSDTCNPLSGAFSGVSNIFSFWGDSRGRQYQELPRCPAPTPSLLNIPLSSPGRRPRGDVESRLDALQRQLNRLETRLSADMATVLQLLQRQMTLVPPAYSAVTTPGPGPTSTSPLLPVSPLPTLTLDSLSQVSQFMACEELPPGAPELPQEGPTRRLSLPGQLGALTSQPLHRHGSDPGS

Row | SMILES | hERG current change (%, negative = inhibition) at 10uM
1 | NC(=O)c1ccccc1OC1CCC1 | 19%
2 | Cn1nc(C(C)(C)C)cc1C(=O)NCc1ccc2c(c1)OCO2 | 11.3%
3 | Cc1ccc(S(=O)(=O)NC(=O)Nc2ccc(N(C)C)cc2)cc1 | 9.23%
4 | O=C(NCCc1ccccc1)C(=O)NCC1OCCCN1S(=O)(=O)c1cc(F)ccc1F (centres unmarked) | -10.8%
5 | Cc1ccccc1C1c2[nH]c3ccccc3c2CCN1Cc1cccn1-c1ncccn1 (centres unmarked) | -46.3%
6 | Nc1ccc(S(=O)(=O)N2CCCC2)cc1 | -2.88%
7 | COc1ccc(CN2CCc3c([nH]c4ccccc34)C2)cc1Br | -45.9%
8 | O=C(CC1CCCC1)NCCS(=O)(=O)N1CCN(c2ccc(F)cc2)CC1 | -15.1%
9 | NC(=O)c1cc(Cc2ccccc2)sc1NC(=O)c1ccco1 | -13.6%
10 | Nc1nc(-c2ccc(-c3ccccc3)cc2)cs1 | 23.2%
11 | COCc1cc(=O)[nH]c(SCCS(=O)(=O)c2ccc(C)cc2)n1 | 11.7%
12 | CCN(CCNC(=O)Cn1cc2c(n1)CCCC2)c1ccccc1 | -6.15%
13 | COc1ccc(C(=O)Nc2cccc3nc(C)ccc23)cc1OC | 10.2%
14 | Cc1cc(C)cc(NCc2cc3c(cc2[N+](=O)[O-])OCO3)c1 | -14.6%
15 | O=C(Nc1ccc2c(c1)OCCO2)c1cc(-c2ccccc2)nc2ccccc12 | 9.23%
16 | C/C=C(\C)c1nnc(NC(=O)C(C)C)s1 | 0.695%
17 | O=C(/C=C1\SC(=O)N(CC(=O)Nc2ccc(Cl)cc2)C1=O)Nc1ccc(F)cc1 | 7.52%
18 | Cc1ccccc1N1CCN(CCCN2C(=O)CC(=C(c3ccccc3)c3ccccc3)C2=O)CC1 | -35.7%
19 | COc1ccc([N+](=O)[O-])cc1NCc1cccc([N+](=O)[O-])c1 | -62.6%

Row | SMILES | hERG current change (%, negative = inhibition) at 10uM
20 | O=C(Cn1ncc2c([nH]c3ccccc32)c1=O)Nc1ccc(F)cc1F | 15.3%
21 | Cc1cc(C)n(CC(=O)NNC(=O)CC(C)c2ccccc2)n1 (centres unmarked) | 7%
22 | COCCN(Cc1cccs1)S(=O)(=O)c1ccc(-c2ccc(=O)[nH]n2)s1 | -46.8%
23 | CC1(C)NC(=O)NC2(C)NC(=O)NC(C)(C)C12 (centres unmarked) | 3.62%
24 | O=C1CN2C(=Nc3ccc(Cl)cc3C2c2ccccc2)CN1 (centres unmarked) | -12.6%
25 | CC(C)N(Cc1nc(-c2ccccc2)no1)C(=O)c1ccc(Cl)cc1 | -35.1%
26 | Nc1nonc1C(=O)NCCN=Cc1ccccc1O | 17.3%
27 | Clc1ccc(-c2ccccc2)cn1 | -3.24%
28 | CC(/C=C/C=C/c1ccccc1)=N/NC(=O)CNc1ccccc1C | 18.1%
29 | CC(C)(C)SC(C(=O)N1CCOCC1)c1ccc(Br)cc1 (centres unmarked) | -7.39%
30 | O=C(Nc1ccnn1C1CCN(C(=O)Cc2cccc(Cl)c2)CC1)C1CC1 | -7.34%
31 | CCOC(=O)N1CCC(N2Cc3cccc(C(=O)Nc4ccc(S(=O)(=O)N(CC)CC)cc4)c3C2=O)CC1 | 16.3%
32 | CCOC(=O)c1cc(C)sc1NC(=O)CN1CCN(C(=O)C2CCCO2)CC1 (centres unmarked) | -31%
33 | CCCCOc1ccc(C(=O)N/C(=C/C=C/c2ccccc2)C(=O)NC)cc1 | -75.2%
34 | CCc1nc(SCC(=O)Nc2nc3c(s2)CCCC3)c2ccccc2n1 | -11.3%
35 | CS(=O)(=O)N1CCCC(C(=O)NCCCN2CCOCC2)C1 (centres unmarked) | -3.43%
36 | COc1ccccc1C1=NC(c2ccccc2)CN1c1ccccc1 (centres unmarked) | 18.4%
37 | COc1cc2c(cc1OC)CN(CC(=O)Nc1ccccc1C#N)CC2 | -11.5%
38 | COc1ccccc1OCCNC(=O)c1cccc(S(=O)(=O)N2CCN(C)CC2)c1 | 5.31%

Row | SMILES | hERG current change (%, negative = inhibition) at 10uM
39 | CC(C)CNS(=O)(=O)c1ccc(CCC(=O)Nc2ccc3c(c2)OCCO3)cc1 | 12.1%
40 | Cc1nc(-c2coc3cc(O)c(C)cc3c2=O)cs1 | 8.94%
41 | O=C(N/N=C/c1cn(-c2ccccc2)nc1-c1cccnc1)c1cccnc1 | -50.3%
42 | NC(=O)c1c(NC(=O)CSc2nc(N)cc(=O)[nH]2)sc2c1CCCC2 | 8.02%
43 | O=C1CC(c2nc3ccccc3[nH]2)CN1c1cccc(C(F)(F)F)c1 (centres unmarked) | -31.3%
44 | O=C(O)Cc1ccc2[nH]c3ccc(CC(=O)O)cc3c2c1 | 7.37%
45 | C=C(C)COc1ccc(-c2nc(N)nc(C)c2-c2ccc(OC)cc2)c(O)c1 | -1.29%
46 | CCn1cc(C(=O)NC2CCCCC2)c(=O)c2ccc(C)nc21 | 8.6%
47 | O=C1c2[nH]nc(-c3ccccc3O)c2C(c2ccc(F)cc2)N1CC1CCCO1 (centres unmarked) | 5.4%
48 | COc1ccc(-n2nnnc2SCC(=O)c2cc3ccccc3o2)cc1 | -0.612%
49 | Cc1ccc(/C=N/N2CCN(C3c4ccccc4-c4ccccc43)CC2)o1 | 5.1%
50 | Cc1ccc(NC(=O)Cn2cnc3c(oc4nc5c(cc43)COC(C)(C)C5)c2=O)cc1 | 6.02%
51 | O=C(NC1CCCCC1)C1CC(=O)N(c2cccc([N+](=O)[O-])c2)C1 (centres unmarked) | 7.03%
52 | CCNc1nc(-c2cc(C)n(Cc3ccco3)c2C)cs1 | 1.21%
53 | CC1(C)Cc2c(sc3c2c(=N)n(Cc2ccco2)c(=O)n3CC(=O)Nc2cccc(Cl)c2)CO1 | 10.6%
54 | O=C(NNC(=S)Nc1ccc(F)cc1)[C@H]1C[C@@H]1c1ccccc1 | 10.9%
55 | O=C(CCCCCN1C(=O)CCC1=O)Nc1ccc2c(c1)OCO2 | 18.2%
56 | CN(CCc1ccccn1)C(=O)c1ccc(OC2CCN(Cc3ccccn3)CC2)cc1 | 4.04%
